These are yes or no findings as the source states them, for the method shown. For some assays here: Binding seen in cells or lysates may run through a third protein. Some results given as binding are weak or reduced against the parent protein; the word gives no strength. For some assays here: Sequences can lack the tags named with a protein.

Amino acid sequences for entries named in this document (tags omitted).
UniProt Q06142: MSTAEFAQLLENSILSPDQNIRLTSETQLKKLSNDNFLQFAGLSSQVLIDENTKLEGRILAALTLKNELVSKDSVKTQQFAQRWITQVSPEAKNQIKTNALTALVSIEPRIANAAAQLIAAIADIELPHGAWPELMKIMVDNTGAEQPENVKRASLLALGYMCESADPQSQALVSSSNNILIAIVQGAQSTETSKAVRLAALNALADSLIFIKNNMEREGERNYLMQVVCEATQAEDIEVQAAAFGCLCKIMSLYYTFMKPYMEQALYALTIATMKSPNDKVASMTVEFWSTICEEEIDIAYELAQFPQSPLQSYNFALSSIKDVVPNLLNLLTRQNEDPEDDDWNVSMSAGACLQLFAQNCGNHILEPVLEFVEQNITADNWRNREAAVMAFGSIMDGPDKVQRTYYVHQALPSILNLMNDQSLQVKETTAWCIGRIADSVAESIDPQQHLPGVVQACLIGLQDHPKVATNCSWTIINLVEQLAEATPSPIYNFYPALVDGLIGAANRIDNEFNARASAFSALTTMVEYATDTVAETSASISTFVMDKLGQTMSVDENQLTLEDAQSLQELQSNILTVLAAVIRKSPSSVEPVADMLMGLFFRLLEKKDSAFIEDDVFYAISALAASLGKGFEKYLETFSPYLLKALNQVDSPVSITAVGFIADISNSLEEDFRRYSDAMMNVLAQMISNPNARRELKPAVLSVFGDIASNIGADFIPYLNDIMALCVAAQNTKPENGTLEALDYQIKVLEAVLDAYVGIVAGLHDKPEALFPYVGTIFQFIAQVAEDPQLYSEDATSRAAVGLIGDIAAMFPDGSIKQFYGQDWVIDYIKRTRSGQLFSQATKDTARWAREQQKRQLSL

For one assay, the target named is T1, Rps3-TAP (S. cerevisiae) (UniProt P05750).
T1 sequence: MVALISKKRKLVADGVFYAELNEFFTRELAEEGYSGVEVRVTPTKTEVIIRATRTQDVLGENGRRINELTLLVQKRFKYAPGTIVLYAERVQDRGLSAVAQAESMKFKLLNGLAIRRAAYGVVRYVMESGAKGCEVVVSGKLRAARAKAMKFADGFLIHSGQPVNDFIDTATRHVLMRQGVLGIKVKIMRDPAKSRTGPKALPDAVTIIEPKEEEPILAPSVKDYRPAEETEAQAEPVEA
The experiment in a line: co-IP; tandem affinity purification (TAP) from yeast lysate via the TAP-tagged bait; final eluates analysed by SDS-PAGE with Coomassie staining or Western blotting; strain without TAP-tag as negative control.

Assay [1] has as its target T2, Rps3-Flag (S. cerevisiae) (UniProt P05750).
T2 sequence: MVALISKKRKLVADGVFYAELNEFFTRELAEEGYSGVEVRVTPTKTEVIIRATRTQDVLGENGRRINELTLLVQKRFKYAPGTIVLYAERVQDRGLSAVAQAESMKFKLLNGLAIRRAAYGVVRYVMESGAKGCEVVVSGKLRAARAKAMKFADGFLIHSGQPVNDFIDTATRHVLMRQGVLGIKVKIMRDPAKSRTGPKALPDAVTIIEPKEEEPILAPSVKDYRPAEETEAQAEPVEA
Nature of the assay: co-IP; split-tag two-step affinity purification from yeast lysate: first via the protein A tag of Yar1-TAP (TEV eluate), then via Rps3-Flag; final eluate analysed by Coomassie staining or Western blotting; untagged wild-type strain as negative control.

The target of a further assay is T3, GST-Kap60ΔIBB (S. cerevisiae, UniProt Q02821 81-542).
T3 construct: Kap60/Srp1 (importin α) of S. cerevisiae lacking the N-terminal IBB domain (80 amino acids); GST can be removed with TEV protease; also called GST-tagged Kap60ΔIBB; source: E. coli BL21 (DE3) Rosetta Star, immobilized on glutathione-agarose beads
T3 sequence (looked up): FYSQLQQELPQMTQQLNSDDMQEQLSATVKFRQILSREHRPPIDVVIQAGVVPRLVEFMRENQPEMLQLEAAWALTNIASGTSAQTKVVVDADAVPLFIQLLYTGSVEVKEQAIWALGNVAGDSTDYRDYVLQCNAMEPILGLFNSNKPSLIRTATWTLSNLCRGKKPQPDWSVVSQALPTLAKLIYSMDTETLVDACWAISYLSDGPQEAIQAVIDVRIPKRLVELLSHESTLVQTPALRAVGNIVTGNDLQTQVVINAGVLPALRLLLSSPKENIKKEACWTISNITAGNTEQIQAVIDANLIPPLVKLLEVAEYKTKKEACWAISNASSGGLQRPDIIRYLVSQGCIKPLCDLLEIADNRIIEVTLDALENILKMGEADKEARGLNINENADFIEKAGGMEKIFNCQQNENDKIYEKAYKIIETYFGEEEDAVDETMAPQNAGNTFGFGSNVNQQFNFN
Nature of the assay: pull-down; GST-tagged importins immobilized on glutathione-agarose beads, incubated with purified His6-Rps3/Flag-Yar1 complex or purified Flag-Yar1; 50 mM Tris pH 7.5, 150 mM NaCl, 1 mM DTT; eluted by boiling (Fig. 2b, Supplementary Fig. S2) or by TEV cleavage (Fig. 2c); Coomassie staining or Western blotting; both purified.

In assay [2] the target is T4, Yar1-TAP (S. cerevisiae) (UniProt P46683).
T4 sequence: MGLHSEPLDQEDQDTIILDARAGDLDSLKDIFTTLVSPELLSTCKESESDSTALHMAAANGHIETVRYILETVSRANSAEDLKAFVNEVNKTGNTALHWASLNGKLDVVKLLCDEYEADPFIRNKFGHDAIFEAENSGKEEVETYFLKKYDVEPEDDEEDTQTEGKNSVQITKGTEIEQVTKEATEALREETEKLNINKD
Nature of the assay: co-IP; split-tag two-step affinity purification from yeast lysate: first via the protein A tag of Yar1-TAP (TEV eluate), then via Rps3-Flag; final eluate analysed by Coomassie staining or Western blotting; untagged wild-type strain as negative control.

The target of assay [3] is T4, Yar1-TAP (S. cerevisiae). Nature of the assay: co-IP; tandem affinity purification (TAP) from yeast lysate via the TAP-tagged bait; final eluates analysed by SDS-PAGE with Coomassie staining or Western blotting; strain without TAP-tag as negative control.
Another assay concerns the target T5, GST-Kap123 (S. cerevisiae, UniProt P40069 1-1113).
T5 construct: Kap123 (karyopherin β4) of S. cerevisiae, recombinant; also called GST-tagged Kap123; source: E. coli BL21 (DE3) Rosetta Star, immobilized on glutathione-agarose beads
T5 sequence (looked up): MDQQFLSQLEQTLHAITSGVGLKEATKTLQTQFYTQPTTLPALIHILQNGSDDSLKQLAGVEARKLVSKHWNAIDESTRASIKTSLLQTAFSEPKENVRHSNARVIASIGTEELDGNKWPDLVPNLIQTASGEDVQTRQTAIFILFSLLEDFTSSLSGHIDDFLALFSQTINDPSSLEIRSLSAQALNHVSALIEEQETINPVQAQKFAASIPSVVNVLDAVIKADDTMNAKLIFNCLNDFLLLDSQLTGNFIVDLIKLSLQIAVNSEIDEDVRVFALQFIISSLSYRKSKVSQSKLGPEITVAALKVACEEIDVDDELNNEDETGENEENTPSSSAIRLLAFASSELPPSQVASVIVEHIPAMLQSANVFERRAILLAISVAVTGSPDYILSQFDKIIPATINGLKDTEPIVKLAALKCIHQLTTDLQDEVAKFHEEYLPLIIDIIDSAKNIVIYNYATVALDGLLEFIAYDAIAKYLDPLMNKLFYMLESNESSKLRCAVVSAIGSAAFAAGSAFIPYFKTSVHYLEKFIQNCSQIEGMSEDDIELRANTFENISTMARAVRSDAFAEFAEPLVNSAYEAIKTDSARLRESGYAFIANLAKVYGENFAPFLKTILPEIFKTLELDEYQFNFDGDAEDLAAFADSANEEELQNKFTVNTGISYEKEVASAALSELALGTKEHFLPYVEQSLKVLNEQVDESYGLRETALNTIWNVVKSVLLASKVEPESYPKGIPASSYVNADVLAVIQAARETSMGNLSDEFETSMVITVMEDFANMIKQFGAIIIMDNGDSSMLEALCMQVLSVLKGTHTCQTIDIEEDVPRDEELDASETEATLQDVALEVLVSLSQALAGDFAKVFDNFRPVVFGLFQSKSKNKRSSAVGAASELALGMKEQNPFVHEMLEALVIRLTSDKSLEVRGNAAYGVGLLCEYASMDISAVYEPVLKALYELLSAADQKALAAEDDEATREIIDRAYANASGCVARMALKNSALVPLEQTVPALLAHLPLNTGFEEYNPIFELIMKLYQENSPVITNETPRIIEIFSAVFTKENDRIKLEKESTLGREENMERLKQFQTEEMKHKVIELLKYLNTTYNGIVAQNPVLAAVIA
The experiment in a line: pull-down; GST-tagged importins immobilized on glutathione-agarose beads, incubated with purified His6-Rps3/Flag-Yar1 complex or purified Flag-Yar1; 50 mM Tris pH 7.5, 150 mM NaCl, 1 mM DTT; eluted by boiling (Fig. 2b, Supplementary Fig. S2) or by TEV cleavage (Fig. 2c); Coomassie staining or Western blotting; both purified.

In the case of Kap60-3xHA (from UniProt Q02821 1-542), the binding result in the assay with Rps3-TAP (S. cerevisiae) is on record as “binds”.

Take Kap95 (from UniProt Q06142 1-861): the binding entry in assay [1] was “binds”.

Turning to Kap60 (from UniProt Q02821 1-542), in assay [1], the binding result is on record as “binds”.

B1: His6-Rps3(K7/K10>A) (protein, UniProt P05750 1-240)
chain: MVALISAKRALVADGVFYAELNEFFTRELAEEGYSGVEVRVTPTKTEVIIRATRTQDVLGENGRRINELTLLVQKRFKYAPGTIVLYAERVQDRGLSAVAQAESMKFKLLNGLAIRRAAYGVVRYVMESGAKGCEVVVSGKLRAARAKAMKFADGFLIHSGQPVNDFIDTATRHVLMRQGVLGIKVKIMRDPAKSRTGPKALPDAVTIIEPKEEEPILAPSVKDYRPAEETEAQAEPVEA
With B1, the binding result with GST-Kap60ΔIBB is recorded as “binds weakly”.

B2: Rps3-Flag (protein, UniProt P05750 1-240)
chain: MVALISKKRKLVADGVFYAELNEFFTRELAEEGYSGVEVRVTPTKTEVIIRATRTQDVLGENGRRINELTLLVQKRFKYAPGTIVLYAERVQDRGLSAVAQAESMKFKLLNGLAIRRAAYGVVRYVMESGAKGCEVVVSGKLRAARAKAMKFADGFLIHSGQPVNDFIDTATRHVLMRQGVLGIKVKIMRDPAKSRTGPKALPDAVTIIEPKEEEPILAPSVKDYRPAEETEAQAEPVEA
Turning to B2, the binding entry with Yar1-TAP (S. cerevisiae) [2] is reported as “binds”.

B3: Rps3 (protein, UniProt P05750 1-240)
chain: MVALISKKRKLVADGVFYAELNEFFTRELAEEGYSGVEVRVTPTKTEVIIRATRTQDVLGENGRRINELTLLVQKRFKYAPGTIVLYAERVQDRGLSAVAQAESMKFKLLNGLAIRRAAYGVVRYVMESGAKGCEVVVSGKLRAARAKAMKFADGFLIHSGQPVNDFIDTATRHVLMRQGVLGIKVKIMRDPAKSRTGPKALPDAVTIIEPKEEEPILAPSVKDYRPAEETEAQAEPVEA
Consider B3, for which the binding entry with Yar1-TAP (S. cerevisiae) [3] is “binds”.

B4: Flag-Yar1 (natural protein, S. cerevisiae, UniProt P46683 1-200, looked up)
chain: MGLHSEPLDQEDQDTIILDARAGDLDSLKDIFTTLVSPELLSTCKESESDSTALHMAAANGHIETVRYILETVSRANSAEDLKAFVNEVNKTGNTALHWASLNGKLDVVKLLCDEYEADPFIRNKFGHDAIFEAENSGKEEVETYFLKKYDVEPEDDEEDTQTEGKNSVQITKGTEIEQVTKEATEALREETEKLNINKD
notes: Yar1, specific chaperone of Rps3, S. cerevisiae, recombinant
B4: the binding result with GST-Kap123 and with GST-Kap60ΔIBB was “no binding” in each case.
